Test results reported in BigSolDB 2.1.

Nc1ccc(S(N)(=O)=O)cc1
Details	solubility (mole fraction)
in acetone, 283.45 K	0.0897
in acetone, 288.45 K	0.0918
in acetone, 293.35 K	0.0945
in acetone, 298.15 K	0.0969
in acetone, 303.15 K	0.0994
in acetone, 308.15 K	0.0983
in acetone, 313.15 K	0.104
in acetone, 318.15 K	0.11
in acetone, 323.15 K	0.116
in isopropanol, 283.25 K	0.000534
in isopropanol, 288.95 K	0.000814
in isopropanol, 293.65 K	0.00105
in isopropanol, 298.15 K	0.00164
in isopropanol, 303.15 K	0.00212
in isopropanol, 308.15 K	0.0031
in isopropanol, 313.15 K	0.00383
in isopropanol, 318.15 K	0.00498
in isopropanol, 323.15 K	0.00674
in n-butanol, 283.15 K	0.000771
in n-butanol, 288.75 K	0.00102
in n-butanol, 293.25 K	0.00128
in n-butanol, 298.25 K	0.00166
in n-butanol, 303.15 K	0.00203
in n-butanol, 308.15 K	0.00255
in n-butanol, 313.15 K	0.00309
in n-butanol, 318.15 K	0.00378
in n-butanol, 323.15 K	0.0045
in n-propanol, 283.35 K	0.00151
in n-propanol, 288.55 K	0.00197
in n-propanol, 293.15 K	0.00229
in n-propanol, 298.35 K	0.00271
in n-propanol, 303.15 K	0.00333
in n-propanol, 308.15 K	0.00386
in n-propanol, 313.15 K	0.00452
in n-propanol, 318.15 K	0.00545
in n-propanol, 323.15 K	0.00622
in sec-butanol, 283.25 K	0.000354
in sec-butanol, 288.15 K	0.000459
in sec-butanol, 293.25 K	0.000597
in sec-butanol, 298.15 K	0.000762
in sec-butanol, 303.15 K	0.000981
in sec-butanol, 308.15 K	0.00139
in sec-butanol, 313.15 K	0.00175
in sec-butanol, 318.15 K	0.00235
in sec-butanol, 323.15 K	0.00282
